In ChEMBL document CHEMBL4888484, “Replenishing the malaria drug discovery pipeline: Screening and hit evaluation of the MMV Hit Generation Library 1 (HGL1) against asexual blood stage Plasmodium falciparum ,using a nano luciferase reporter read-out” (2022):
Values joined by “and” are separate entries in the source; they are usually repeats but may differ in a detail not shown here. Identical values can stand only once. Among all 150,000 compounds or so, about 540 (0.36%) showed an effect of 50% or more. Some of the results follow.

Tested on: Plasmodium falciparum
Assay: Primary screen in NF54 nanoGlo assay, in single point, at 2uM, 72h; a lower Z score goes with more inhibition
Assay type: functional, Erythrocyte
Conditions: timepoint 72 hour

Row | SMILES | % Inhibition [%] | Z score | % Inhibition (2 µM)
1 | O=C(NCc1nccs1)c1nn(Cc2ccccc2)c2c1CN(C(=O)[C@@H]1CCCO1)CC2 | -19 | 2.44 | –
2 | c1ccc(C2(c3nc(C4CCCCC4)no3)CCOCC2)cc1 | -7 | 1.11 | –
3 | Cn1c(=O)n([C@H]2CCCN(Cc3ccco3)C2)c2ncncc21 | -18 | 1.79 | –
4 | CC(C)(C)c1ccc(CCC(=O)N[C@@]2(C)CCOC2)cc1 | 6 | -0.68 | –
5 | O=C(NC1(CN2CCOCC2)CCCC1)c1cccc(-c2ncccc2O)c1 | 1 | -0.11 | –
6 | O=C(CC1CC2CCC1C2)N1CCC(c2ncc[nH]2)C1 (centres undefined) | -4 | 0.55 | –
7 | CC[C@@H]1Oc2ccc(NC(=O)c3ccc4c(c3)OCO4)cc2CN(Cc2ccccc2)C1=O | 1 | -0.07 | –
8 | Cc1ccc(NC(=O)N(C)C)c(Cl)c1 | 1 | -0.08 | –
9 | O=S(=O)(Nc1cccc2c1CCCC2)c1ccc(-c2cnc(C3CC3)o2)cc1 | -5 | 0.93 | –
10 | Cc1cc(C)nc(CN(C)Cc2c(C)nc3ccccn23)c1 | 2 | -0.36 | –
11 | O=C(O)CN1CCC[C@H](c2nc(-c3ccccc3)c[nH]2)C1 | -8 | 0.94 | –
12 | CCn1cc(C(=O)NC[C@H]2CCCN(Cc3ccoc3)C2)cn1 | -19 | 2.93 | –
13 | CC1CC(c2ccccc2)CN1C(=O)c1ccc2nccn2c1 (centres undefined) | -8 | 1.13 | –
14 | O=C1Nc2ccc(S(=O)(=O)N3CCCC3)c3ccc(S(=O)(=O)N4CCCC4)c1c23 | 5 | -0.66 | –
15 | O=C(C1CCCC1)N1C[C@@H]2CN(CCc3cccc(F)c3)C[C@]2(C(=O)O)C1 | -4 | 0.71 | –
16 | CC(=O)N1CCN(c2nc(Cc3ccc(C)cc3)nc3c2c(C)nn3-c2ccccc2)CC1 | 7 | -0.78 | –
17 | O=C(N[C@@H]1C[C@@H]2CCCC[C@@H]21)c1nccc2occc12 | -4 | 0.68 | –
18 | Cn1ccnc1-c1c(-c2ccccc2)ncn1C(CO)CO | -2 | 0.23 | –
19 | CCc1nc(CNC(=O)N2C3CCC2CC(CCF)C3)co1 (centres undefined) | -9 | 1.69 | –
20 | CCCNC(=O)CCc1c(C)n(C)c2nc(-c3ccc(Cl)cc3)nn2c1=O | -15 | 1.5 | –
21 | Cc1ccc(S(=O)(=O)NCc2ccc(CNS(=O)(=O)c3ccc(C)cc3)cc2)cc1 | -2 | 0.2 | –
22 | Cc1csc(-c2ccc(N3CCN(C(=O)c4cc(F)ccc4Cl)CC3)nc2)n1 | -28 | 4.8 | –

Row | SMILES | % Inhibition [%] | Z score | % Inhibition (2 µM)
23 | CC(=O)N1CC[C@H](Nc2nc(C3CC3)ns2)C1 | -6 | 0.62 | –
24 | CC(C)(C)c1cc2c(NCC3=CCOCC3)nccn2n1 | 43 | -5.48 | –
25 | Cc1ccc2[nH]c3c(c2c1)CCOc1ccccc1-3 | 9 | -1.24 | –
26 | Cn1cc(NC(=O)CCC2CCCCCC2)c(C(N)=O)n1 | 3 | -0.6 | –
27 | O=C(CN1CCCN(c2ccnc(Cc3ccc(F)cc3)n2)CC1)N1CCCC1 | -9 | 1.42 | –
28 | O=C(O)[C@H](Cc1ccccc1)Nc1ncccn1 | -18 | 3.46 | –
29 | COc1ccc(Br)c([C@H](CO)N(C)Cc2cc3n(n2)CCCC3)c1 | -3 | 0.4 | –
30 | CCOC(=O)CN1CCN(c2ccc(-c3ccccc3)cc2)C(=O)[C@@H]1C | -13 | 2.09 | –
31 | CCCn1ccnc1CN1C[C@H]2CC[C@@H](C1)N(CC=C(C)C)C2 | -28 | 2.96 | –
32 | CC(C)n1cc(NC(=O)NCCC[C@H]2CCCCO2)cn1 | -3 | 0.34 | –
33 | CN(C(=O)c1ccc(Br)cc1-n1cncn1)C1CCC1 | -3 | 0.36 | –
34 | CN(C(=O)NC[C@H]1CC2(CCOCC2)CO1)C1CC1 | -12 | 1.88 | –
35 | Cc1c([C@H]2NC(=O)c3ccccc3N2C)cc(C#N)n1C | -1 | 0.05 | –
36 | Cc1cc(NC(=O)N2CCC[C@H](C3CCOCC3)C2)c(N(C)C)nn1 | -2 | 0.28 | –
37 | NCc1n[nH]c(=O)n1-c1ccc2c(c1)OCO2 | -8 | 1.16 | –
38 | COc1ccc(CCNc2nccn(-c3ccc4c(c3)OCCO4)c2=O)cc1OC | -12 | 1.35 | –
39 | Cc1nn(-c2ccccc2)c2c1[C@@H](c1ccc(C(F)(F)F)cc1)N(c1ccccc1)C(=O)N2 | 33 | -4.23 | –
40 | O=S(=O)(Nc1ccccc1-c1nc2ccccc2nc1O)c1cccc(F)c1 | – | – | -9% and 2%
41 | O=C(c1cn[nH]c1)N(CC1CCN(C2Cc3ccccc3C2)CC1)C[C@H]1CCCO1 | -3 | 0.36 | –
42 | CCn1nccc1-c1nc(-c2ncccn2)no1 | -9 | 1.19 | –
43 | O=C1CCCc2[nH]c(=O)c(C(=O)N3CCCc4ccccc43)cc21 | -5 | 0.9 | –
44 | Cc1[nH]ncc1C(=O)N1CCCN(Cc2ccc(C(F)(F)F)cc2)CC1 | -1 | 0.16 | –

Row | SMILES | % Inhibition [%] | Z score | % Inhibition (2 µM)
45 | C/C=C/CC(=O)N1CCC[C@@]2(CCC(=O)N(Cc3ccncc3)C2)C1 | -21 | 2.4 | –
46 | O=C(N[C@@]1(C(F)(F)F)NC(c2ccccc2)=NC1=O)c1ccc(Cl)cc1Cl | -10 | 1.42 | –
47 | COCc1nc(C(=O)Nc2cccnc2C2CC2)cs1 | -15 | 2 | –
48 | Cc1noc2ncnc(N3CCCN(CCCc4ccccc4)CC3)c12 | -1 | 0.13 | –
49 | COC(=O)Nc1cccc(OS(=O)(=O)C[C@H](CC(C)C)OC)c1 | 3 | -0.62 | –
50 | Cc1ccc(-c2coc(-c3cccc(NS(=O)(=O)c4ccc(Br)cc4C)c3)n2)cc1 | 2 | -0.42 | –
51 | O=C(c1cccc2c1CCOC2)N1CCCc2c1nc[nH]c2=O | -9 | 1.22 | –
52 | FC(F)(F)C1CN(c2ncnc3[nH]ccc23)C1 | -5 | 0.93 | –
53 | O=C(Nc1cccc(F)c1)C(F)(F)[C@@]1(F)OC(F)(F)C(F)(F)C1(F)F | -1 | 0.23 | –
54 | CC(C)OCCCNC(=O)CCC(=O)NCc1ccco1 | 2 | -0.27 | –
55 | Cc1cc(OCC(=O)Nc2ccnn2C2CCCC2)nnc1C | -2 | 0.28 | –
56 | Cc1n[nH]c(=O)nc1Nc1ccc(N2CCCCC2)cc1 | -4 | 0.5 | –
57 | CN(CCC(C)(C)O)C(=O)c1cc(F)cc(Cl)c1 | -7 | 1.18 | –
58 | C[C@H](NS(C)(=O)=O)c1nc(-c2cccnn2)no1 | 1 | -0.26 | –
59 | CCOc1ncccc1C(=O)N1CC[C@@H]2OCc3cccc(c3)Oc3cccc(c3)CCC(=O)N(C)CC(=O)N[C@@H]2C1 | 11 | -1.51 | –
60 | Cc1nn(C)c(C)c1C(=O)N[C@H]1CCN(c2ccc3nncn3n2)C1 | 3 | -0.41 | –
61 | O=C(c1nc2c(s1)CCCC2)N1CCC[C@H](c2nnc3ccccn23)C1 | -5 | 0.81 | –
62 | CCn1cc(NC(=O)[C@@]2(C)CC2(Cl)Cl)cn1 | -2 | 0.34 | –
63 | Cc1nc(C(=O)NC2C(C)CCCC2C)c(C)o1 (centres undefined) | 1 | -0.22 | –
64 | Cc1ccc(S(=O)(=O)Nc2ccc3c(c2)CCCN3S(=O)(=O)c2cccs2)c(C)c1 | 2 | -0.22 | –
65 | CN1[C@@H]2CC[C@H]1CN(C(=O)Nc1ccc3c(c1)CCC3)CC2 | 2 | -0.26 | –
66 | CN1CCO[C@](c2ccccc2)(C(O)(c2ccccc2)c2ccccc2)C1=O | -3 | 0.57 | –

Row | SMILES | % Inhibition [%] | Z score | % Inhibition (2 µM)
67 | O=S(=O)(c1ccc(F)cc1F)N1CCN=C1N1CCCCC1 | -1 | 0.24 | –
68 | CCCC(CCC)NCc1cnn(C)c1 | -10 | 1.05 | –
69 | CN(C)c1ccc(-c2cccnc2)nn1 | -3 | 0.64 | –
70 | O=C(Nc1nnc2ccccn12)C1CCCC1 | -5 | 0.58 | –
71 | Nc1nnnn1CC(=O)N[C@H]1CC2(CCCCC2)Oc2ccccc21 | -11 | 2.37 | –
72 | COCCOc1cc2cc(c1)C(=O)NCCNC(=O)N[C@H]1CCN(Cc3cnc(C)n3C)C[C@@H]1OCc1cccc(c1)O2 | -4 | 0.67 | –
73 | COc1cccc(CNCCCN2CCOCC2)c1OCc1ccc(Cl)cc1Cl | 30 | -1.27 | –
74 | CC1CC(c2ccccc2)CN1C(=O)NC1CCC(=O)NC1C1CCCO1 (centres undefined) | 28 | -3.49 | –
75 | CN1C[C@@H]2CC[C@H](CC1=O)N2S(=O)(=O)CC1CCC1 | -7 | 0.94 | –
76 | Cc1cc(F)ccc1NS(=O)(=O)c1cc(-c2onc(C)c2C)sc1C | 1 | -0.08 | –
77 | COc1ccccc1[C@H](CNC(=O)NC1CC1)N1CCCCC1 | -7 | 0.96 | –
78 | CC(C)c1nc(CC(=O)N2CCOCC2)cs1 | -8 | 0.8 | –
79 | O=C(NCC1COc2ccccc2O1)C1CCc2[nH]cnc2C1 (centres undefined) | -18 | 3.02 | –
80 | Cc1cc2nc3n(c(=O)c2n1CC(=O)Nc1cc(F)ccc1F)CCCCC3 | -17 | 1.92 | –
81 | O=C(CCn1cc(Cl)cn1)N1CCOC[C@@H](O)C1 | -16 | 1.49 | –
82 | CC(C)(C(=O)N1CCC([C@@H]2CCCO2)CC1)c1c[nH]cn1 | 26 | -3 | –
83 | Cc1ccc2[nH]c(C(=O)N3CCC(Oc4cccc(C#N)c4)CC3)c(C)c2c1 | -4 | 0.66 | –
84 | COc1ccc(-c2nnc(-c3cccnc3NCCC3=CCCCC3)o2)cc1 | -14 | 1.37 | –
85 | Cc1nc(N2CCN(C)CC2)nc(C)c1NC(=O)c1ccccc1 | -3 | 0.45 | –
